The supplement of paper PMC8728848
Some of the results follow.

Legend:
Assay in all cases: glycan array binding signal (z-score within array); higher = stronger binding
Conditions in all cases: glycan notation: IUPAC condensed, linker removed
Gal(b1-4)Glc = molecular target: Gal(b1-4)Glc
In short: (§1)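 The Consortium for Functional Glycomics database supplied 3228 glycan arrays, of which those lacking an available protein sequence were dropped. The binding signal, a within-array Z-score, was averaged across arrays of the same protein sequence and across linkers. Negative scores can be read as non-binding.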

Gal(b1-4)Glc6S = molecular target: Gal(b1-4)Glc6S
In short: as §1

Gal(b1-4)GlcNAc = molecular target: Gal(b1-4)GlcNAc
In short: as §1

[1] = molecular target: Gal(b1-4)GlcNAc(a1-6)Gal(b1-4)GlcNAc
In short: as §1

Gal(b1-4)GlcNAc(b1-2)Man = molecular target: Gal(b1-4)GlcNAc(b1-2)Man
In short: as §1

[2] = molecular target: Gal(b1-4)GlcNAc(b1-2)Man(a1-3)Man(b1-4)GlcNAc(b1-4)GlcNAc
In short: as §1

[3] = molecular target: Gal(b1-4)GlcNAc(b1-2)Man(a1-3)[Gal(b1-4)GlcNAc(b1-2)Man(a1-6)]Man(b1-4)GlcNAc(b1-4)GlcNAc
In short: as §1

[4] = molecular target: Gal(b1-4)GlcNAc(b1-2)Man(a1-3)[Gal(b1-4)GlcNAc(b1-2)Man(a1-6)]Man(b1-4)GlcNAc(b1-4)[Fuc(a1-6)]GlcNAc
In short: as §1

[5] = molecular target: Gal(b1-4)GlcNAc(b1-2)Man(a1-3)[Gal(b1-4)GlcNAc(b1-2)Man(a1-6)][Gal(b1-4)GlcNAc(b1-4)]Man(b1-4)GlcNAc(b1-4)[Fuc(a1-6)]GlcNAc
In short: as §1

[6] = molecular target: Gal(b1-4)GlcNAc(b1-2)Man(a1-3)[Gal(b1-4)GlcNAc(b1-2)Man(a1-6)][GlcNAc(b1-4)]Man(b1-4)GlcNAc(b1-4)[Fuc(a1-6)]GlcNAc
In short: as §1

[7] = molecular target: Gal(b1-4)GlcNAc(b1-2)Man(a1-3)[GlcNAc(b1-2)Man(a1-6)]Man(b1-4)GlcNAc(b1-4)GlcNAc
In short: as §1

[8] = molecular target: Gal(b1-4)GlcNAc(b1-2)Man(a1-3)[GlcNAc(b1-4)][Gal(b1-4)GlcNAc(b1-2)Man(a1-6)]Man(b1-4)GlcNAc(b1-4)GlcNAc
In short: as §1

[9] = molecular target: Gal(b1-4)GlcNAc(b1-2)Man(a1-3)[Man(a1-6)]Man(b1-4)GlcNAc(b1-4)GlcNAc
In short: as §1

[10] = molecular target: Gal(b1-4)GlcNAc(b1-2)Man(a1-6)Man(b1-4)GlcNAc(b1-4)GlcNAc
In short: as §1

[11] = molecular target: Gal(b1-4)GlcNAc(b1-2)Man(a1-6)[GlcNAc(b1-2)Man(a1-3)]Man(b1-4)GlcNAc(b1-4)GlcNAc
In short: as §1

[12] = molecular target: Gal(b1-4)GlcNAc(b1-2)Man(a1-6)[Man(a1-3)]Man(b1-4)GlcNAc(b1-4)GlcNAc
In short: as §1

[13] = molecular target: Gal(b1-4)GlcNAc(b1-2)[Gal(b1-4)GlcNAc(b1-4)]Man(a1-3)[Gal(b1-4)GlcNAc(b1-2)Man(a1-6)]Man(b1-4)GlcNAc(b1-4)GlcNAc
In short: as §1

[14] = molecular target: Gal(b1-4)GlcNAc(b1-2)[Gal(b1-4)GlcNAc(b1-4)]Man(a1-3)[Gal(b1-4)GlcNAc(b1-2)[Gal(b1-4)GlcNAc(b1-6)]Man(a1-6)]Man(b1-4)GlcNAc(b1-4)GlcNAc
In short: as §1

[15] = molecular target: Gal(b1-4)GlcNAc(b1-2)[Gal(b1-4)GlcNAc(b1-4)]Man(a1-3)[GlcNAc(b1-4)][Gal(b1-4)GlcNAc(b1-2)Man(a1-6)]Man(b1-4)GlcNAc(b1-4)GlcNAc
In short: as §1

[16] = molecular target: Gal(b1-4)GlcNAc(b1-2)[Gal(b1-4)GlcNAc(b1-4)]Man(a1-3)[GlcNAc(b1-4)][Gal(b1-4)GlcNAc(b1-2)[Gal(b1-4)GlcNAc(b1-6)]Man(a1-6)]Man(b1-4)GlcNAc(b1-4)GlcNAc
In short: as §1

[17] = molecular target: Gal(b1-4)GlcNAc(b1-2)[Gal(b1-4)GlcNAc(b1-6)]Man(a1-6)[Gal(b1-4)GlcNAc(b1-2)Man(a1-3)]Man(b1-4)GlcNAc(b1-4)GlcNAc
In short: as §1

[18] = molecular target: Gal(b1-4)GlcNAc(b1-2)[Gal(b1-4)GlcNAc(b1-6)]Man(a1-6)[Gal(b1-4)GlcNAc(b1-2)Man(a1-3)]Man(b1-4)GlcNAc(b1-4)[Fuc(a1-6)]GlcNAc
In short: as §1

B1: Epa13 (Candida glabrata) (protein)
chain: MGSSHHHHHHSSGLVPRGSHMASDSSENGYAHGCSPSIRAKLKPGLSMEIYSYALRPTDDHCWDSAYLDPMFPRTGYLTHKLLGKAEGIIGPLNFLAKNPACIPAVSTLPLAFHFPKPFTITNFTMLLYGYLSPKKTGKYTFKLLADDLLLMNFGADNAFDCCSHDATKDNIGEYVAYSVWPGVNKNVTVYLESGIYYPLRLFFNNRDAIAQLDFAYYFNDSPIRQTDFSGMFFSIPDSVKCPANI
B1 was tested, and the “glycan array binding signal (z-score)” value (Gal(b1-4)Glc) was -0.291, the “glycan array binding signal (z-score)” value (Gal(b1-4)Glc6S) was 0.255 and the “glycan array binding signal (z-score)” value (Gal(b1-4)GlcNAc) was -0.478. The “glycan array binding signal (z-score)” value [1] was 0.075, the “glycan array binding signal (z-score)” value (Gal(b1-4)GlcNAc(b1-2)Man) was -0.245 and the “glycan array binding signal (z-score)” value [2] was -0.047. For the same binder, the “glycan array binding signal (z-score)” value [3] was -0.393, the “glycan array binding signal (z-score)” value [4] was -0.202 and the “glycan array binding signal (z-score)” value [5] was -0.346. The “glycan array binding signal (z-score)” value [6] was -0.346, the “glycan array binding signal (z-score)” value [7] was -0.193 and the “glycan array binding signal (z-score)” value [8] was -0.549. For the same binder, the “glycan array binding signal (z-score)” value [9] was -0.211, the “glycan array binding signal (z-score)” value [10] was -0.046 and the “glycan array binding signal (z-score)” value [11] was -0.161. The “glycan array binding signal (z-score)” value [12] was -0.359, the “glycan array binding signal (z-score)” value [13] was -0.08 and the “glycan array binding signal (z-score)” value [14] was 0.003. The “glycan array binding signal (z-score)” value [15] was -0.29, the “glycan array binding signal (z-score)” value [16] was -0.091 and the “glycan array binding signal (z-score)” value [17] was -0.437. For the same binder, the “glycan array binding signal (z-score)” value [18] was -0.246.
